# Assay results published in PubChem BioAssay (Tox21).
# The inconclusive results got no clear call from the source; some entries with a clear call stand among them for comparison. For part of these data: Where the call is inconclusive, the potency comes from a doubtful curve fit. Some compounds were tested as several samples or in several runs, with calls that do not always agree. Activity calls are given as the source filed them. Unless noted, calls follow the shape of the dose curve; as a rule, active = well fitted curve in the direction sought with a large enough effect in the repeat runs; inconclusive = weak or mixed curves; inactive = no such curve, though single readings can be large; an effect the other way counts as inactive or inconclusive.
# Experiments:
# [1] = target: Estrogen receptor beta (Homo sapiens) (UniProt Q92731); assay: qHTS assay to identify small molecule agonists of the estrogen receptor beta (ER-beta) signaling pathway (AID 1259377; active = well fitted activation curve with a large enough effect in the signal ratio in the repeat runs, not every such curve was filed as active; inconclusive = weak or mixed curves, or effect the other way; the % refers to the signal ratio; also: potency is read from the fitted curve at half-maximal effect); conditions: ER-beta-UAS-bla HEK293T, beta-lactamase FRET ratio, 16 h; activation: at 92.4 µM (top of the series) unless noted
# UniProt Q92731, sequence (Q92731 whole entry, looked up): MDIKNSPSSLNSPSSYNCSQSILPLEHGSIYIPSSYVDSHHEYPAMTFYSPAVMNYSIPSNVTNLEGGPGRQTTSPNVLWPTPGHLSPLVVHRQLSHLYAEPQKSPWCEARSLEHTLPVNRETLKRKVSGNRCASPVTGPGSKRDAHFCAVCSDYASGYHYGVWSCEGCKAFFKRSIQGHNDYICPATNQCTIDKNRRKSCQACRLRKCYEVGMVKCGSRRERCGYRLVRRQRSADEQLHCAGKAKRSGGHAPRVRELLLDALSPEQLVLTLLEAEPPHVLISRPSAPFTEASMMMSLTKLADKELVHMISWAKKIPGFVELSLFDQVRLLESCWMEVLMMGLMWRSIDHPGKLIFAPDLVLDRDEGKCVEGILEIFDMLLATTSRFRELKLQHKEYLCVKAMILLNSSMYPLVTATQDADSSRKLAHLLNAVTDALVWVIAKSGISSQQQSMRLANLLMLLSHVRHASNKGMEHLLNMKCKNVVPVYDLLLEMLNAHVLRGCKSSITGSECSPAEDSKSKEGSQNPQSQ
# In short: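 In HEK293T cells bearing a UAS-beta-lactamase reporter under ER-beta control, DMSO-delivered compounds were incubated for 16 hr at 37C. Activity was detected as fluorescence 2 hours after LiveBLAzer B/G FRET substrate addition.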
# [2] = qHTS assay to identify small molecule agonists of the estrogen receptor beta (ER-beta) signaling pathway - cell viability counter screen (AID 1259380); also: nearly all actives have a fitted effect of over 30% in size; also: potency is read from the fitted curve at half-maximal effect
# In short: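 Measured: luminescence from CellTiter-Glo after 30 min at room temperature, added to wells already read for the LiveBLAzer FRET reporter (2 hr substrate); ER-beta-UAS-bla HEK293T cells had 16 hr compound treatment at 37C, 5% CO2.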
# [3] = qHTS assay to identify small molecule antagonists of the vitamin D receptor (VDR) signaling pathway - cell viability counter screen (AID 743225); conditions: VDR-bla HEK293T viability, CellTiter-Glo luminescence, 16 h; viability change, negative = cytotoxic: at 61 µM (top of the series) unless noted; also: nearly all actives have a fitted effect of over 50% in size; also: potency is read from the fitted curve at half-maximal effect
# In short: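 In this counter screen, VDR-bla HEK 293T cells receive test compound plus 3 nM final calcitriol for 16 h at 37C. Room-temperature steps of 2 h with the beta-lactamase substrate, then 30 min with CellTiter-Glo, precede the luminescence read.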
# [4] = A CellTox Green Cytotoxicity Assay to monitor cytotoxicity in HepG2 cells - 40 hour (AID 1224879); also: potency is read from the fitted curve at half-maximal effect; nearly all actives have a fitted effect of over 40% in size
# In short: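 Measurements at 0, 8, 16, 24, 32 and 40 h of treatment captured CellTox Green fluorescence in HepG2 cells that had been co-plated with reagent and preincubated 5 h at 37 C/5% CO2.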
# [5] = Caspase-3/7 induction in HepG2 cells by small molecules, qHTS cell viability counter screen (AID 1346981); also: nearly all actives have a fitted effect of over 30% in size; also: potency is read from the fitted curve at half-maximal effect
# In short: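 Treatment of HepG2 cells with DMSO-delivered compounds ran 16 hr at 37 C following a 5-hr pre-incubation of 2,000 cells/well. CellTiter-Fluor fluorescence, read after 1 hr, served as the viability measure in a qHTS format.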
# [6] = target: Cytochrome P450 2D6 (Homo sapiens) (UniProt P10635); assay: Cytochrome P450 Family 2 Subfamily D Member 6 (CYP2D6) small molecule antagonists: luciferase reporter qHTS assay (AID 1671196); also: nearly all actives have a fitted effect of over 50% in size; also: potency is read from the fitted curve at half-maximal effect
# UniProt P10635, sequence (P10635 whole entry, looked up): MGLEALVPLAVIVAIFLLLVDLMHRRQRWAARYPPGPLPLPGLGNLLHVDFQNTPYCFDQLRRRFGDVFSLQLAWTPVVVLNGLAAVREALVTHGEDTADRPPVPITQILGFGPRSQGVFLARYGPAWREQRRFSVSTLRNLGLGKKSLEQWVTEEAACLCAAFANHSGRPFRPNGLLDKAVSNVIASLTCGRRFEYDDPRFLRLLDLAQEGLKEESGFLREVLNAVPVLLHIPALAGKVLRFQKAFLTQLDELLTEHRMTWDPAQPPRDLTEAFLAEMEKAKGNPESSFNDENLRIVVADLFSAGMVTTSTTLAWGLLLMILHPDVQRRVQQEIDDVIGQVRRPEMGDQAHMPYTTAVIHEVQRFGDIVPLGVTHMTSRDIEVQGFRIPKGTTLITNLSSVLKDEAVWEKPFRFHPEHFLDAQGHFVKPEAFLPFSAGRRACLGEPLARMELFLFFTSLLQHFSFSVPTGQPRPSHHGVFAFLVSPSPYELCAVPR
# In short: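 Chemicals tested for interference with CYP2D6 activity; proluciferin substrate, NADPH regeneration, 1 h at room temperature, luminescent detection.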
# [7] = qHTS assay to identify small molecule agonists of the farnesoid-X-receptor (FXR) signaling pathway - cell viability counter screen (AID 743218); conditions: FXR-bla HEK293T viability, CellTiter-Glo luminescence, 16 h; viability change, negative = cytotoxic: at 62.6 µM (top of the series) unless noted; also: nearly all actives have a fitted effect of over 45% in size; also: potency is read from the fitted curve at half-maximal effect
# In short: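 Same-well cytotoxicity check on FXR-UAS-bla HEK 293T cells: 5 h attachment, 16 h compound at 37 C, CellTiter-Glo luminescence read at room temperature after 30 min.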
# [8] = qHTS assay to identify small molecule agonists of the vitamin D receptor (VDR) signaling pathway - cell viability counter screen (AID 743224); also: % is scaled to controls: 0 for no effect and ±100 for the full control effect; nearly all actives have a fitted effect of over 50% in size
# In short: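 Counter screen for cytotoxicity: VDR-bla cells at 2,000 cells/well, 16 h compound exposure, then CellTiter-Glo luminescence after the beta-lactamase measurement.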
# [9] = target: Estrogen receptor (Homo sapiens) (UniProt P03372); assay: qHTS assay to identify small molecule antagonists of the estrogen receptor alpha (ER-alpha) signaling pathway (AID 743069; active = well fitted curve in the direction sought with a large enough effect in the signal ratio in the repeat runs, not every such curve was filed as active; inconclusive = weak or mixed curves, or effect the other way; inactive = no such curve, though single readings can be large or run the other way; the % refers to the signal ratio; also: % is scaled to controls: 0 for no effect and ±100 for the full control effect); conditions: HEK293 ER-alpha-UAS-bla, beta-lactamase ratio, antagonist mode; activity, negative = inhibition: at 69.4 µM (top of the series) unless noted
# UniProt P03372, sequence (P03372 whole entry, looked up): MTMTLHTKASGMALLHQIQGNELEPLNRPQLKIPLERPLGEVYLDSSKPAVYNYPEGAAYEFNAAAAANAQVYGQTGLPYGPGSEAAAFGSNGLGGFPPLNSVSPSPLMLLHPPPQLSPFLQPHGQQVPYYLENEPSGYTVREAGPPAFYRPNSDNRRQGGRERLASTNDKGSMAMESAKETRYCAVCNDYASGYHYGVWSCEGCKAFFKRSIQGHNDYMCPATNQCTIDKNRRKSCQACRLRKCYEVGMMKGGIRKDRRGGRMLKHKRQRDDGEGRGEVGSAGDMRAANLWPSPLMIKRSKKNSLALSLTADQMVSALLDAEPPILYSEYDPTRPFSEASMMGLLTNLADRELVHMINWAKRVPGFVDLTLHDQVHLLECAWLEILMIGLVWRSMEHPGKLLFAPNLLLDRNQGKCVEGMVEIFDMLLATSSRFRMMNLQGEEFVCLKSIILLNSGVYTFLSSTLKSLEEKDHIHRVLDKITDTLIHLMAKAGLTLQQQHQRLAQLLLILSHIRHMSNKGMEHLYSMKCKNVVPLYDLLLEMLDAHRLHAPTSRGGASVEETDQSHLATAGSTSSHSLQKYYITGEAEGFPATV
# In short: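 A 17beta-estradiol challenge was applied right after compound transfer to ER-alpha-UAS-bla HEK293 cells previously kept in charcoal-stripped serum. Plates stood 18 hr at 37C and 5% CO2; fluorescence was read following 2 hr FRET substrate loading at room temperature.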
# [10] = qHTS RealTime-Glo MT Cell Viability Assay in HEK293 cells - 0 hour (AID 1224880); also: potency is read from the fitted curve at half-maximal effect; nearly all actives have a fitted effect of over 45% in size
# In short: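 HEK293 + NanoLuc + prosubstrate, 600 cells/well; 5 h, 37 C/5% CO2; compound 23 nL in DMSO by pintool; 37 C; luminescence read at 0, 8, 16, 24, 32 and 40 h time points.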
# [11] = A CellTox Green Cytotoxicity Assay to monitor cytotoxicity in HEK293 cells - 16 hour (AID 1224888); also: potency is read from the fitted curve at half-maximal effect; nearly all actives have a fitted effect of over 35% in size
# In short: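 Tox21 screen in HEK293: membrane-impermeant cyanine dye fluoresces on binding dead-cell DNA; compound pinned 5 h post-seeding, plates held at 37 C, signal read repeatedly through 40 h.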
# [12] = target: Progesterone receptor (Homo sapiens) (UniProt P06401); assay: qHTS assay to identify small molecule agonists of the progesterone receptor (PR) signaling pathway (AID 1346784; calls by dose curve; also: nearly all actives have a fitted effect of over 30% in size; also: potency is read from the fitted curve at half-maximal effect); conditions: PR-UAS-bla HEK293T, beta-lactamase FRET ratio, 16 h; activation: at 92.4 µM (top of the series) unless noted
# UniProt P06401, sequence (P06401 whole entry, looked up): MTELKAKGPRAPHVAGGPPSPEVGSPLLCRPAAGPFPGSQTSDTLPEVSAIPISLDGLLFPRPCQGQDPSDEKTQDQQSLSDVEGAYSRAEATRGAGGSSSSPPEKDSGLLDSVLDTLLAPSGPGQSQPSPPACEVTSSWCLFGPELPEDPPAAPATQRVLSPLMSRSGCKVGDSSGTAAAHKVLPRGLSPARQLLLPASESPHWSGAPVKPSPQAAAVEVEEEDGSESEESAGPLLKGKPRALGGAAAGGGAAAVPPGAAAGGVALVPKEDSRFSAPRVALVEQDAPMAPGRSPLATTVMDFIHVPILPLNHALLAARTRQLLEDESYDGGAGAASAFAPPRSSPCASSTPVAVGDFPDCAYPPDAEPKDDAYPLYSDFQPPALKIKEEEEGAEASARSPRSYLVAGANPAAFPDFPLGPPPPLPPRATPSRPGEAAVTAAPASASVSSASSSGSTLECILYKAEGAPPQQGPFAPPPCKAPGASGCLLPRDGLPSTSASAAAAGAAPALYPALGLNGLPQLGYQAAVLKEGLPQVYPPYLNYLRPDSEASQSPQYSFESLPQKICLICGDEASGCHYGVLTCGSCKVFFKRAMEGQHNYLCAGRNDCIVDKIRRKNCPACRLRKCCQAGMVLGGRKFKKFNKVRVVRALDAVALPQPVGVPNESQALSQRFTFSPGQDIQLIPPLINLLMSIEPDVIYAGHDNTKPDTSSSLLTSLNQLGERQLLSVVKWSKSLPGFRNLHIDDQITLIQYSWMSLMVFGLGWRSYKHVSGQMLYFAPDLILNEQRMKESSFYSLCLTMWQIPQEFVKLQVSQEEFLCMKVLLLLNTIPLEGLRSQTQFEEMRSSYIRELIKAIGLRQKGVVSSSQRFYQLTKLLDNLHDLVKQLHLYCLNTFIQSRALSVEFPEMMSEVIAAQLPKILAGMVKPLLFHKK
# In short: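 Using charcoal-stripped serum (2%) to limit endogenous steroids, PR-UAS-bla HEK 293T cells received compounds for 16 hr at 37C after 6 hr plating; beta-lactamase FRET fluorescence was recorded following 2 hr substrate loading at room temperature.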
# [13] = qHTS assay to identify small molecule antagonists of the androgen receptor (AR) signaling pathway - cell viability counter screen (AID 743033; also: % is scaled to controls: 0 for no effect and ±100 for the full control effect; nearly all actives have a fitted effect of over 45% in size); conditions: AR-bla HEK293 viability, CellTiter-Glo luminescence, 16 h; activity change, negative = cytotoxicity: at 58.5 µM (top of the series) unless noted
# [14] = qHTS assay to identify small molecule phospholipidosis (PLD) inducers (AID 1259344; active = well fitted curve in the direction sought with a large enough effect; inconclusive = small, poorly fitted or top-dose-only effect, or another doubt; inactive = no such curve, though single readings can be large; an effect the other way counts as inactive or inconclusive; also: % is scaled to controls: 0 for no effect and ±100 for the full control effect); conditions: HepG2 phospholipidosis, LipidTOX Red imaging, 24 h; PLD induction: at 38.3 µM (top of the series) unless noted
# In short: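 After 4 h attachment on collagen I, HepG2 cells were dosed with compound alongside LipidTOX Red, kept 24 h at 37 C, fixed, and imaged for lamellar phospholipid pits.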
# [15] = qHTS assay for identifying genotoxic compounds that show differential cytotoxicity against isogenic chicken DT40 cell lines with known DNA damage response pathways - Rad54/Ku70 mutant cell line (AID 743015); conditions: DT40 Rad54/Ku70 mutant viability, CellTiter-Glo, 40 h; activity change, negative = cytotoxicity: at 66.8 µM (top of the series) unless noted; also: % is scaled to controls: 0 for no effect and ±100 for the full control effect; nearly all actives have a fitted effect of over 60% in size
# [16] = target: Estrogen receptor beta (Homo sapiens) (UniProt Q92731); assay: qHTS assay to identify small molecule antagonists of the estrogen receptor beta (ER-beta) signaling pathway (AID 1259378; active = well fitted inhibition curve with a large enough effect in the signal ratio in the repeat runs, not every such curve was filed as active; inconclusive = weak or mixed curves, or effect the other way; inactive = no such curve, though single readings can be large or run the other way; the % refers to the signal ratio; also: % is scaled to controls: 0 for no effect and ±100 for the full control effect); conditions: ER-beta-UAS-bla HEK293T, beta-lactamase FRET ratio, 16 h; activity, negative = inhibition: at 92.4 µM (top of the series) unless noted
# In short: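 ER-beta-UAS-bla HEK293T (GripTite) cells in 2% charcoal-stripped FBS medium were preincubated 6 hr at 37C, dosed with compound, then stimulated with 1 nM E2 (final) for 16 hr; beta-lactamase reporter read by B/G FRET fluorescence after 2 hr substrate loading.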
# [17] = qHTS assay to identify small molecule antagonists of the sonic hedgehog signaling (Shh) pathway (AID 1259369; calls by dose curve; also: % is scaled to controls: 0 for no effect and ±100 for the full control effect; nearly all actives have a fitted effect of over 45% in size)
# In short: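 NIH/3T3 stable Gli1-Luc clone, 2,000 cells/well, 4hr settle; cpd + conditioned medium 24hr; Luc reagent 30min RT; luminescence.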
# [18] = qHTS assay to identify small molecule antagonists of the estrogen receptor alpha (ER-alpha) signaling pathway using the BG1 cell line (AID 743080; calls by dose curve;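 also: BG1 cells stimulated with 17beta-estradiol alongside compound; % is scaled to controls: 0 for no effect and ±100 for the full control effect; nearly all actives have a fitted effect of over 25% in size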); conditions: BG1Luc4E2 ERE-luciferase antagonist mode, luminescence; activity change, negative = inhibition: at 70.3 µM (top of the series) unless noted
# In short: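 Luciferase inhibition measured with ONE-Glo after 30 min at RT in BG1Luc4E2 cells given test compounds and 17beta-estradiol for 21.5 h at 37 C; CellTiter-Fluor viability read in the same wells beforehand.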
# [19] = target: Peroxisome proliferator-activated receptor gamma (Homo sapiens) (UniProt P37231); assay: qHTS assay to identify small molecule agonists of the peroxisome proliferator-activated receptor gamma (PPARg) signaling pathway (AID 743094; active = well fitted activation curve with a large enough effect in the signal ratio in the repeat runs, not every such curve was filed as active; inconclusive = weak or mixed curves, or effect the other way; inactive = no such curve, though single readings can be large or run the other way; the % refers to the signal ratio; also: % is scaled to controls: 0 for no effect and ±100 for the full control effect); conditions: HEK293H PPARg-UAS-bla, beta-lactamase FRET ratio, 17 h; activation: at 57 µM (top of the series) unless noted
# UniProt P37231, sequence (P37231 whole entry, looked up): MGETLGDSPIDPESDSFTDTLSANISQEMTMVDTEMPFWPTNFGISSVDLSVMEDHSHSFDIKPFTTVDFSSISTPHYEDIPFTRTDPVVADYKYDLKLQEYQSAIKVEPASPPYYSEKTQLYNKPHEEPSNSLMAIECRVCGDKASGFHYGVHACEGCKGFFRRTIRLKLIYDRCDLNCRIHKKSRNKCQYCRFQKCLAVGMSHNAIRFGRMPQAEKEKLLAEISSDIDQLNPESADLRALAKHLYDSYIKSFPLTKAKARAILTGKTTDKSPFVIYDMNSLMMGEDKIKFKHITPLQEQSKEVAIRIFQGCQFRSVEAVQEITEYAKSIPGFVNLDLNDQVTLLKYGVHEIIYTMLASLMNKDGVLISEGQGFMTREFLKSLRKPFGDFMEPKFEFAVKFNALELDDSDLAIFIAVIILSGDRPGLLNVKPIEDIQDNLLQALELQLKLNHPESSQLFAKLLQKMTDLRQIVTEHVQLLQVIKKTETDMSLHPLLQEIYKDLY
# In short: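 Fluorescence-based beta-lactamase readout in HEK293H PPARg UAS-bla cells after 17 h compound exposure (37C) and 1 h B/G FRET substrate incubation at room temperature.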
# [20] = qHTS assay to identify small molecule antagonists of the progesterone receptor (PR) signaling pathway - cell viability counter screen (AID 1346798); also: % is scaled to controls: 0 for no effect and ±100 for the full control effect; nearly all actives have a fitted effect of over 50% in size
# In short: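 ATP content as viability readout: CellTiter-Glo luminescence, 30 min room temperature, in PR-UAS-bla HEK293T cells after 16 hr compound/R5020 treatment at 37C and 5% CO2.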
# Tags tell the direction and shape of the fitted curve or compound fluorescence and quenching.
compound,measurement,setting,value
O=S(O)(O)=S,Potency,[1],"inconclusive: 4.15 µM [activator, single point]"
same,"activity change, negative = cytotoxicity",[2],inactive: -9.09% [at 8.39 µM]
CCCCC(C)C(=O)O (centres undefined),"viability change, negative = cytotoxic",[3],inconclusive: -19.1% [cytotoxic]
same,Potency,[4],"inconclusive: 21.9 µM [activator, single point]"
same,Potency,[1],"inconclusive: 24.3 µM [activator, single point]"
same,Potency,[5],"inconclusive: 27.3 µM [rising, partial curve, poor fit]"
same,Potency,[6],inactive
Cc1cccc(N(C)C)c1,activation,[1],inconclusive: 9.59%
CC(C)NCC(O)COc1ccc(CC(N)=O)cc1 (centres undefined),Potency,[7],"inconclusive: 2.45 µM [rising, full curve, poor fit]"
same,Potency,[8],inactive
COc1cc(O)cc(O)c1,"activity, negative = inhibition",[9],inconclusive: 33.8%
same,Potency,[10],"inconclusive: 0.601 µM [falling, partial curve, poor fit]"
CCCCCCCCCCCCCC(=O)OCC,Potency,[9],inactive
same,Potency,[7],"inconclusive: 0.0062 µM [rising, full curve, poor fit]"
same,Potency,[8],inactive
same,Potency,[2],"inconclusive: 0.273 µM [cytotoxic, single point]"
same,Potency,[5],"inconclusive: 27.3 µM [cytotoxic, single point]"
same,Potency,[6],inactive
CCn1cc(C(=O)O)c(=O)c2cc3c(cc21)OCO3,Potency,[4],"inconclusive: 0.0083 µM [activator, full curve, poor fit]"
same,Potency,[11],"inconclusive: 6.57 µM [activator, single point]"
same,Potency,[12],active: 1.24 µM
Nc1ccc(/C=C/c2ccc(N)cc2S(=O)(=O)O)c(S(=O)(=O)O)c1,Potency,[13],inactive
same,Potency,[14],inactive
Cc1ncc(CO)c(CN)c1O,Potency,[7],inactive
same,Potency,[2],inactive
COC(=O)c1ccc(C(=O)O)cc1,Potency,[12],inactive
same,Potency,[6],inconclusive: 62.3 µM [inhibitor]
O=[N+]([O-])c1cncn1CCN1CCOCC1,Potency,[7],inactive
same,Potency,[2],"inconclusive: 33.5 µM [rising, single point]"
C1CCC2(CCCCO2)OC1,Potency,[15],inactive
same,Potency,[8],inactive
same,"activity, negative = inhibition",[16],inconclusive: 31%
CCCCCCCCCCCCCCBr,Potency,[17],inactive
same,Potency,[5],inactive
C=C(C)C(=O)OCCOP(=O)(O)OCCOC(=O)C(=C)C,Potency,[3],"inconclusive: 12.3 µM [cytotoxic, single point]"
CO[C@@H]1[C@@H](OC(N)=O)[C@@H](O)[C@H](Oc2ccc3c(O)c(NC(=O)c4ccc(O)c(CC=C(C)C)c4)c(=O)oc3c2C)OC1(C)C,Potency,[18],inactive
same,activation,[19],inconclusive: -11.3% [at 26.2 µM]
same,Potency,[2],inactive
same,Potency,[20],inactive
